# Assay results published in the supplement of paper PMC11417369.
# ± gives the standard deviation of the averaged measurements. The list shows a part of the results.
# Tested on: PfAP2-EXP AP2 domain (GST-tagged)
# Experiment: gcPBM binding intensity (ln(normalized median fluorescence intensity)); higher = stronger DNA binding
# Outline: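 Binding intensity is defined as the maximum Masliner-normalised natural-log median intensity across replicate spots for either probe orientation. It was measured on an Agilent 4 × 180k array of primer-extended double-stranded 36-bp intergenic genomic probes and negative controls, to which GST-tagged P. falciparum DNA-binding domains made in E. coli were applied for 1 h in 1× PBS with 1% milk, 0.2 mg/ml BSA, 0.5% salmon testes DNA and 0.03% Triton X-100. Detection was by Alexa488 anti-GST antibody and scanning at 488 nm.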
row,Sequence,gcPBM binding intensity (ln)
1,TATGTTATATTATAAGGATAAATTTTGATTATATAA [TGCATGCA_negctrl_site600],8.07 ± 0.36
2,TATATTTACATTGTAACACACATGAAATATTTATAT [CACACA_site6178],8.37 ± 0.34
3,TAGACTAATCCCAAAAGTACAGAAAAATTATATTAT [XGTACX_site8663],8.49 ± 0.41
4,TATATTATATATTGGGGTACATATATATAAATATAA [XGTACX_site2296],8.71 ± 0.42
5,TATCAATATTAAAAAGTGCAAAATAAAATATAAAAT [GTGCAC_site9486],9.05 ± 0.37
6,CGTAGCCCCACTAACACACACAAATATACTCAATCA [CACACA_site5587],8.59 ± 0.61
7,AGTTTTTATTAAAACAAAATTTAATTATAACGTTGA [XGTACX_negctrl_site298],8.08 ± 0.3
8,TATATATATATATACACACATACATATATATATTTG [CACACA_site857],10.1 ± 0.3
9,TTATATGTATGAACAAGTACATGCTATAATTATAAA [XGTACX_site1399],8.38 ± 0.38
10,ATATATATATATATATGTACATATATACATATATGT [XGTACX_site1521],10 ± 0.49
11,AGTAGTCTGGAGAAGAGTACATAGTTTCTGGTAGCT [XGTACX_site2023],8.57 ± 0.42
12,AATAACTATATATGTGTGCACAAAAATTTGACATAA,8.99 ± 0.18
13,TTTTTTTTTTTTTGATGTACAATAATTAAAGAGTAA [XGTACX_site8403],8.32 ± 0.54
14,GTATATATATATATATGTACATATTTAGAGTTCTGT [XGTACX_site5357],8.65 ± 0.22
15,ATATTTACCATTGTATGTACATATATAAAATATATC [XGTACX_site3237],8.63 ± 0.36
16,AACATATACACGAACACACACACATATATATATATA [CACACA_site502],10.1 ± 0.38
17,TAAAGAAAAAAATGTTGTACTTTATGAAACATATTT [XGTACX_site412],8.23 ± 0.3
18,AAAACAAATGAGTACACACACATAAAAATTGAAAAT [CACACA_site199],8.78 ± 0.47
19,ACACTATCTTAGATTTGTACATATTTATATATGTAT [XGTACX_site8739],8.55 ± 0.38
20,TCGGTATCTGTTCAAAGTACACATTTGTATACAAAA [XGTACX_site1890],8.62 ± 0.33
21,TATATAACATATGGGACACACATGCAACTGTTATAT [CACACA_site3792],8.97 ± 0.25
22,ATGTGATGTTATATATGTACTTATTTTTTAATAAGG [XGTACX_site1786],8.54 ± 0.28

row,Sequence,gcPBM binding intensity (ln)
1,TTTTTATATTATTTAATGAGAAATAATTATAAACAA [CACACA_negctrl_site553],8.1 ± 0.29
2,AAAAATATTATGATGTTTATTAGAAAGGAAAAAACT [CACACA_negctrl_site1417],8.55 ± 0.42
3,TGCTTATCCATTTCTACACACAAAAAAAAAAAAAAA [CACACA_site37],8.28 ± 0.28
4,TTATATTATAACAAACGTACGAATTTTATACAAATA [XGTACX_site7258],8.39 ± 0.34
5,AAATGGGTTTATTTAACACACAAAAGAAAAAATATA [CACACA_site1938],8.65 ± 0.45
6,TATATATATTTATGTTGTACAAAATATTATTACGTA [XGTACX_site5384],8.32 ± 0.12
7,TATTTTTACAATGGTAGTACCATTTTGAATCTTTGT [XGTACX_site6092],8.59 ± 0.33
8,CACCCGCACGTATTTGCACACATTGCCACGTAATTA [CACACA_site5786],9.1 ± 0.35
9,ACATAAAATAAATATACACACATATGTATATATTAT [CACACA_site3041],8.22 ± 0.26
10,ATAAAATATATATGCACACACATATATATTTCATAC [CACACA_site3547],8.49 ± 0.35
11,AAAAGAATTTAGAAGGCATGCACTTAAACATGGATA [TGCATGCA_site699],9.13 ± 0.33
12,ATATATATATATATGTGTACTTATAAATATATCTGT [XGTACX_site4337],10.1 ± 0.33
13,ATATCCCATATGTAATGTACTTACACTTTCTTAATT [XGTACX_site7020],8.72 ± 0.39
14,AATATTTAAAACAAATCACACATGTATCCATAAATG [CACACA_site5308],8.38 ± 0.33
15,TAAATATTTTATTGTACACACTTTTTATGAATGATG [CACACA_site5694],8.93 ± 0.46
16,AGGGAATAATATTAATGTACATATATGAACTTGTTT [XGTACX_site6089],8.71 ± 0.56
17,TCTTTTAAAAATTAAGTGCATGTCCTTATAACAAAA,8.54 ± 0.2
18,TATAAAAAGGAAAAATAAAAATAAAAATAAAAATTA [CACACA_negctrl_site1822],8.28 ± 0.46
19,ATATTTATATATATATGTACATATGTGTGTTTTTAT [XGTACX_site3956],8.74 ± 0.49
20,AAAAAAATAATGTACACACACATATCTGTTTATATA [CACACA_site4270],8.49 ± 0.26
21,TCATAAACATTATGCACACAAAAATAAAAAAAAATA [CACACA_site1115],8.73 ± 0.18
22,ATATATAACTTTTCTTAACACACAAAAAACAAAAAT [CACACA_site8748],8.69 ± 0.51
